# About 6,400 (1.6%) of roughly 410,000 compounds were called active. The shares of active, inactive and inconclusive entries below differ from those in the screen. Calls come from the whole dose curve; as a rule, active = well fitted inhibition curve with a large enough effect; inconclusive = small, poorly fitted or top-dose-only effect; inactive = no such curve, though single readings can be large or run the other way. No potency is given beside an inconclusive call; the fits are too rough.
# Molecular target: Glucagon-like peptide 1 receptor (Homo sapiens) (UniProt P43220)
# Experiment: qHTS of GLP-1 Receptor Inverse Agonists (Inhibition Mode); note: nearly all actives have a fitted effect of over 55% in size
# Conditions: HEK293 GLP-1R CRE-luciferase, luminescence, 24 h, GLP-1R form is constitutively active; activity change, negative = inhibition: at 38.3 µM (top of the series) unless noted
# Outline: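 Constitutively active GLP-1R drives a cAMP-responsive luciferase in stably transfected HEK293 cells; test compounds are added after overnight (12 h) attachment and left 24 hr, and signal loss in luminescence marks inhibition.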
# % is set by controls: 0 for no effect and ±100 for the full control effect; potency is the fitted concentration of half-maximal effect; tags give direction and shape of the fitted curve.
# Sequence of UniProt P43220 (P43220 whole entry, looked up): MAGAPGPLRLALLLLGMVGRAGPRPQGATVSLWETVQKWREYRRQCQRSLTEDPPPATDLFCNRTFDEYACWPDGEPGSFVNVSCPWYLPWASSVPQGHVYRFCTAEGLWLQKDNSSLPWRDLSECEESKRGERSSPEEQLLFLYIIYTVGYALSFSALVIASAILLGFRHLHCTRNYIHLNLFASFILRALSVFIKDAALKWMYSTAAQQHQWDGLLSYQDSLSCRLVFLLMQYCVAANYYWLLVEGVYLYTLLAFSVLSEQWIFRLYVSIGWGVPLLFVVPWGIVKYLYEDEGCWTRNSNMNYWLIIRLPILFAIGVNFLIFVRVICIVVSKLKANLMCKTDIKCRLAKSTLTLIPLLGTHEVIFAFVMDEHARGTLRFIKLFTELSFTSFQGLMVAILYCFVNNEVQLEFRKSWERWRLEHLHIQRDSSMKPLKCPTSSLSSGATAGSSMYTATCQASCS
SMILES,Potency,"activity change, negative = inhibition"
O=C(CC(O)(CC(=O)OCc1ccccc1)C(=O)OCc1ccccc1)OCc1ccccc1,active: 8.91 µM,
CCc1nnc(NC(=O)c2nc(SCc3ccccc3C)ncc2Cl)s1,inactive,
N#CCCN(C(=O)COC(=O)C1CCN(c2ccc(C(F)(F)F)cn2)CC1)c1ccc(F)cc1,"inconclusive [inhibitor, single point]",
O=C(Nc1nc2nccc(-c3ccccc3)n2n1)c1ccc(F)cc1,inactive,
Cn1c(SCc2nnc(-c3ccc(F)cc3)o2)nnc1C1COc2ccccc2O1 (centres undefined),"inconclusive [inhibitor, single point]",
C1=C(c2ccccc2)Nc2ncnn2C1c1ccccc1 (centres undefined),inactive,
COc1ccc(-n2nnnc2C(c2ccnc3ccccc23)N2CCN(C/C=C/c3ccccc3)CC2)cc1 (centres undefined),"inconclusive [inhibitor, partial curve, poor fit]",
Oc1ccc(C[C@H]2CNCCN2CCc2cccc3ccccc23)cc1,"inconclusive [inhibitor, partial curve, poor fit]",
O=C(N/N=C/c1cccc(O)c1)c1cc(-c2ccc3c(c2)OCO3)n[nH]1,"inconclusive [inhibitor, single point]",
Cn1cc(S(=O)(=O)N2CCCCCC2)cc1C(=O)NCc1ccccc1Cl,"inconclusive [inhibitor, single point]",
O=C(CC(CC(=O)c1ccccc1)c1ccccn1)c1ccccc1,active: 10 µM,
O=C(Nc1ccc(-c2nc3ncccc3o2)cc1)c1ccco1,inactive,
O=C(Nc1nonc1NC(=O)C1CCCCC1)C1CCCCC1,"inconclusive [inhibitor, single point]",
COc1ccc(CN2CCn3nc(C(=O)NC4CC4)cc3C2=O)cc1,inactive,
COCCN(CC1CCCN(C2Cc3ccccc3C2)C1)C(=O)CCC(N)=O (centres undefined),"inconclusive [inhibitor, single point]",
CN(C)CC/C=C1\c2ccccc2CSc2ccccc21,"inconclusive [inhibitor, single point]",
Cc1cccc(NS(=O)(=O)c2ccc(-n3cccn3)cc2)c1C,"inconclusive [inhibitor, single point]",
CCOC(=O)c1cc(-c2ccccc2)n(CCC(=O)Nc2ccc(Cl)c(C(F)(F)F)c2)c1C,"inconclusive [inhibitor, partial curve, poor fit]",
Cc1ccc(S(=O)(=O)N(C(=O)c2ccncc2)c2ccc(OC(=O)c3ccncc3)c3ccccc23)c(C)c1,"inconclusive [inhibitor, single point]",
CNC(C)C(=O)NC(C(=O)NC(C)C(=O)NNc1ccccc1)C(C)C (centres undefined),"inconclusive [inhibitor, single point]",
COc1cc(/C=C2\SC(=S)N(CC(=O)NC(C)(C)C)C2=O)cc(OC)c1OC,"inconclusive [inhibitor, single point]",
COc1ccc(Br)cc1CNC(=O)CN1C(=O)C(c2ccccc2)Oc2cccnc21 (centres undefined),"inconclusive [inhibitor, partial curve, poor fit]",

SMILES,Potency,"activity change, negative = inhibition"
O=C(CCc1nc2cccnc2n1Cc1cccs1)Nc1cccc(Cl)c1,"inconclusive [inhibitor, single point]",
Cc1ccc(-c2cc(C(=O)OCC(=O)NC3CC3)c3ccccc3n2)cc1,"inconclusive [inhibitor, single point]",
Cn1c(SCc2ccc(Br)cc2)nc2ccccc2c1=O,"inconclusive [inhibitor, partial curve, poor fit]",
COc1ccc(NC(=O)Cc2c(C)n(C(=O)c3ccc(Cl)cc3)c3ccc(OC)cc23)cc1,"inconclusive [inhibitor, full curve, poor fit]",
CN(C)CCCNc1oc(-c2cccc(Cl)c2)nc1C#N,active: 6.31 µM,
CCc1nc(N2CCN(C(=S)NCCCOC)CC2)c2c3c(sc2n1)CCCC3,active: 11.2 µM,
c1ccc(COc2ccc(-c3cc4nc(NCCCn5ccnc5)ccn4n3)cc2)cc1,"inconclusive [inhibitor, partial curve]",
COc1ccc(-c2ccc(C(=O)NC3CCCCC3)c3occc23)c(C)c1,"inconclusive [inhibitor, full curve, poor fit]",
CCOC(=O)C1CCCc2c1[nH]c1ccc(Cl)cc21 (centres undefined),"inconclusive [inhibitor, partial curve, poor fit]",
CC(C)Cn1c(N)c(C(=O)COC(=O)c2ccc(O)cc2)c(=O)n(C)c1=O,"inconclusive [inhibitor, partial curve, poor fit]",
CC1CN(c2oc(Cc3cccc4ccccc34)nc2C#N)CC(C)O1 (centres undefined),"inconclusive [inhibitor, partial curve, poor fit]",
CN(CC(=O)Nc1ccc(Cl)c(C(F)(F)F)c1)C(=O)/C=C/c1ccco1,"inconclusive [inhibitor, single point]",
C=CC[C@]12CC=CC(=O)[C@@]1(O)O[C@H](c1ccc(OC)c(OC)c1)[C@H]2C,active: 11.2 µM,
O=C(NN=Cc1c(O)ccc2ccccc12)C1CC1,"inconclusive [inhibitor, full curve]",
COc1cc(OC)c(N(C)S(=O)(=O)c2cccc(C(=O)Nc3nccs3)c2)cc1Cl,"inconclusive [inhibitor, single point]",
COc1ccc(OCCSc2nnc(CCNC(=O)c3ccc(OC)cc3)n2C)cc1,inactive,
Cc1ccc(NC(=O)/C(=C\C=C\c2ccccc2)NC(=O)c2ccccc2)cc1,"inconclusive [inhibitor, partial curve, poor fit]",
Cc1ccc(S(=O)(=O)N2CCOCC2)cc1C(=O)Nc1ccccc1C(=O)O,inactive,
O=C(Nc1ccc(Br)cc1Cl)c1cnccn1,inactive,
COc1ccc(CCNC(=O)c2c(C)nn(-c3ccc(F)cc3)c2-n2cccc2)cc1OC,"inconclusive [inhibitor, partial curve, poor fit]",
CCCCCC1(C)NC(=S)N(c2ccccc2)N1 (centres undefined),"inconclusive [inhibitor, partial curve]",
c1csc(-c2nc(CN3CCSCC3)cs2)c1,"inconclusive [inhibitor, partial curve, poor fit]",

SMILES,Potency,"activity change, negative = inhibition"
O=C(/C=C/c1cccs1)NC(=S)NNC(=O)Cc1cccs1,inactive,
Cc1ccc(OCC(=O)N2CCc3ccccc3C2)cc1C,"inconclusive [inhibitor, partial curve, poor fit]",
O=[N+]([O-])c1ccc2c(c1)C(N1CCOCC1)/C(=C/COc1ccc(Cl)cc1Cl)O2 (centres undefined),"inconclusive [inhibitor, partial curve, poor fit]",
Cc1ccc(N2C(=O)NC(NC(=O)c3ccc(Cl)cc3)(C(F)(F)F)C2=O)cc1 (centres undefined),"inconclusive [inhibitor, single point]",
COc1cccc(-c2ccc3c(N)c(C(=O)NCc4ccc(Cl)cc4)sc3n2)c1,"inconclusive [inhibitor, partial curve, poor fit]",
Cc1ccc(C)c(S(=O)(=O)C(C#N)c2nc3ccccc3nc2N2CC(C)OC(C)C2)c1 (centres undefined),"inconclusive [inhibitor, single point]",
COc1ccc(NC(=O)Cn2nnc(-c3ccccc3)c2COc2ccc3ccccc3c2)cn1,"inconclusive [inhibitor, single point]",
CC(=O)OCC1=C(C(=O)OC(C)(C)C)N2C(=O)[C@@H](NC(=O)Cc3ccccc3)[C@H]2SC1,inactive,
CC(=O)/C=C/c1ccccc1Oc1c(F)c(F)nc(F)c1F,"inconclusive [inhibitor, single point]",
Cc1c(N2CCCC2)cc2c(c1NC(=O)c1ccccc1Cl)C(C)(C)CC2(C)C,"inconclusive [inhibitor, single point]",
COc1cc(C)c(S(=O)(=O)Nc2ccccc2F)cc1C,"inconclusive [inhibitor, partial curve, poor fit]",
O=C(c1ccccc1)c1cc(Cl)ccc1N1C(=O)C=CC1=O,"inconclusive [inhibitor, partial curve, poor fit]",
CCOc1ccc(NC(=S)N(CCCN2CCCC2)Cc2cccn2Cc2ccc(Cl)cc2)cc1,"inconclusive [inhibitor, partial curve, poor fit]",
Cc1ccc(-c2cc3ccccc3nc2N)cc1,"inconclusive [inhibitor, single point]",
COc1ccc(CC(C)CC(=O)Nc2ccc(OC)cc2)cc1 (centres undefined),,inconclusive: -56.3% [inhibitor]
COc1cc(/C=N/n2c(-c3ccc4c(c3)NC(=O)CO4)csc2=Nc2cccc(C)c2)ccc1O,"inconclusive [inhibitor, single point]",
CN(C(=O)C(=O)Nc1ccc2nc3n(c(=O)c2c1)CCCCC3)c1cccc(C(F)(F)F)c1,inactive,
O=C1NC(c2ccccn2)Nc2sc3c(c21)CCC3 (centres undefined),"inconclusive [inhibitor, single point]",
CC(O)[C@H]1CC[C@H]2[C@@H]3CC[C@H]4C[C@H](O)CC[C@]4(C)[C@H]3[C@H](O)C[C@]12C (some centres undefined),"inconclusive [inhibitor, partial curve]",
CCc1ccc(NC(=O)Cn2c(=O)oc3cc(S(=O)(=O)N4CCCCCC4)ccc32)cc1,"inconclusive [inhibitor, partial curve]",

# From PubChem BioAssay AID624417 (National Center for Advancing Translational Sciences (NCATS), 2012)
